What is called Kd is the constant that tells how readily two partners part at equilibrium. Lower therefore signals higher affinity. One may read the koff as a measure of how fast the partners let go of each other. High values mean a short-lived complex, low ones a long-lived complex. In general, kon refers to a measure of how fast the partners come together. A higher kon goes with faster complex formation.

Results on one molecule are retold here after patent US20230056821A1 (Innovent, published 2023).

Several values for one entry are separate records, joined by “and”; a condition that tells them apart may be missing. Identical values can stand only once.

Test [1] has as its target T1, VEGF-A165 (human, UniProt P15692-4 27-191).
T1 sequence (looked up): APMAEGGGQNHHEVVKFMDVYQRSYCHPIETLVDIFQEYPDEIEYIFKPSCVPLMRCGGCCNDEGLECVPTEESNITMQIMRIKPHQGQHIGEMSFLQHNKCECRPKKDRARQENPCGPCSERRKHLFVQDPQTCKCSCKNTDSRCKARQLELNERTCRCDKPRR
The test is described as follows: cell-based or functional assay.

Test [2] addresses T1, VEGF-A165. Nature of the test: SPR, Biacore T200.
Another test concerns the target T2, PlGF (UniProt P49763-2 19-149, limits assumed).
T2 construct: also called PIGF
T2 sequence (looked up): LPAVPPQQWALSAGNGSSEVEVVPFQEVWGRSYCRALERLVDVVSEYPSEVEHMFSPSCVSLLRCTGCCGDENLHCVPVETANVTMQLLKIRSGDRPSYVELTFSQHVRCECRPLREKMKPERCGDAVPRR
Nature of the test: SPR, Biacore T200. (In general: Surface plasmon resonance follows binding to a sensor surface in real time, without labels.)

A further test concerns the target T3, VEGF-A121 (UniProt P15692-9 27-147).
T3 sequence (looked up): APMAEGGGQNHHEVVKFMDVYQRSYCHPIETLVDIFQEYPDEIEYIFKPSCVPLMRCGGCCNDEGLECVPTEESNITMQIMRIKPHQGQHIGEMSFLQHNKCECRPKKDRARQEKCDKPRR
Nature of the test: SPR, Biacore T200.

B1: IBI302 (Fc fusion)
chain: DTGRPFVEMYSEIPEIIHMTEGRELVIPCRVTSPNITVTLKKFPLDTLIPDGKKIIWDSRKGFIISNATYKEIGLLTCEATVNGHLYKTNYLTHRQTNTIIDVVLSPSHGIELSVGEKLVLNCTARTELNVGIDFNWEYPSSKHQHKKLVNRDLKTQSGSEMKKFLSTLTIDGVTRSDQGLYTCAASSGLMTKKNSTFVRVHEK[gap - human IgG1 Fc][gap - about 200 residues]
notes: also called bispecific fusion protein
With B1, the “EC50 (ng/mL), inhibition of VEGF-A-induced HUVEC proliferation (CCK-8)” value in the test with VEGF-A165 [1] is 54.4 ng/mL and 57.5 ng/mL. Moreover, the Kd with VEGF-A165 [2] turned out to be 4.68 pM; in the test with PlGF, 1790 pM; with VEGF-A121, 6.76 pM. For the same molecule, the results for the koff with VEGF-A165 [2], with PlGF and with VEGF-A121 were 8.75e-05 s⁻¹, 0.0018 s⁻¹ and 5.79e-05 s⁻¹, respectively. Further, the kon turned out to be 1.87e+07 M⁻¹ s⁻¹ with VEGF-A165 [2], 1e+06 M⁻¹ s⁻¹ with PlGF and 8.57e+06 M⁻¹ s⁻¹ in the test with VEGF-A121.
